Measured values from PubChem BioAssay AID1347417 (National Center for Advancing Translational Sciences (NCATS), 2020).
Among all 120,000 compounds or so, about 5,300 (4.4%) were called active. This list was built around the results that the source calls inconclusive (neither active nor inactive); the mix of calls is not that of the screen. Calls come from the whole dose curve; as a rule, active = well fitted inhibition curve with a large enough effect; inconclusive = small, poorly fitted or top-dose-only effect; inactive = no such curve, though single readings can be large or run the other way. Potencies beside an inconclusive call are fits to weak or partial responses and may not hold up.

Experiment: qHTS Primary assay for Inhibitors of Plasmodium falciparum Dd2 growth in vitro; note: nearly all actives have a fitted effect of over 65% in size
Settings: P. falciparum Dd2 growth, SYBR Green, 72 h; series mostly up to 28.9 µM
How it was run: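 Readout: SYBR Green fluorescence, 485 nm excitation, 535 nm emission, after ~16 h lysis at 37C. Before that, Dd2-infected red cells (2.5% hematocrit) grew 72 h with compound, 29 uM top final concentration.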
Potency is the fitted concentration of half-maximal effect; tags give direction and shape of the fitted curve.

| Structure (SMILES) | Potency |
| --- | --- |
| COc1ccc(OC)c(CNC(=O)CCC2CCN(S(=O)(=O)c3ccccc3)CC2)c1 | inactive |
| COCC1CN(C)CC12CCN(C(=O)c1cccc(C)c1)CC2 (stereo not given) | inactive |
| COc1cccc(-n2c(SCC(=O)N3CCc4ccccc43)nc3c([nH]c4ccccc43)c2=O)c1 | inconclusive: 1 µM [inhibitor, single point] |
| COc1ccccc1CN[C@H]1Cc2ccc(cc2)Nc2cc(ccc2OC)C[C@H](C(=O)NCc2ccccc2)N(C)C1=O | inconclusive: 1.26 µM [inhibitor, partial curve, poor fit] |
| COc1ccc(-c2cc3nc4c(c(=O)n3[nH]2)CN(C(=O)CC(C)C)CC4)cc1 | inconclusive: 0.355 µM [inhibitor, single point] |
| CCOc1cc(CN2CCC(C(Cc3ccccc3F)N(C)C(=O)c3cccs3)CC2)ccc1O (stereo not given) | active: 3.98 µM |
| Cc1ccc(Nc2cc(C)nc(-n3nc(C)cc3C)n2)cc1 | inconclusive: 12.6 µM [inhibitor, single point] |
| COCC(=O)N[C@H]1CC[C@]2(C)CC[C@@H]([C@H](C)C(=O)NCc3cccs3)[C@H](O)[C@H]2[C@@H]1C | inconclusive: 11.2 µM [inhibitor, partial curve, poor fit] |
| CCOC(=O)N1CCN(C2CCCN(Cc3cc(C)ccc3-n3cccn3)C2)CC1 (stereo not given) | active: 10 µM |
| COc1ccc(-c2[nH]nc3ncc(-c4ccccc4O)nc23)c(C)c1 | inactive |
| Cc1ccccc1CC(=O)N1CCN(C(=O)c2nnn3c2COC(c2ccccc2)C3)CC1 (stereo not given) | inconclusive: 17.8 µM [inhibitor, single point] |
| Cc1ccc(Oc2c(CCC(=O)NC(C)C)c(C)nn2-c2ccccc2)cc1 | inconclusive: 0.282 µM [inhibitor, full curve] |
| Cc1nn2c(c1-c1ccccc1OCc1ccccc1)N(CC1CC1)CCC2 | inconclusive: 1.58 µM [inhibitor, partial curve, poor fit] |
| CC1CCN(C(=O)CSc2c3c(nc4ccc(Cl)cc24)CCCC3)CC1 | inconclusive: 10 µM [inhibitor, single point] |
| CC1=C(c2ccc(C(C)C)cc2)S(=O)(=O)NC1=NCc1ccccc1C | inactive |
| Cc1cccc(NC(=O)CSc2nc3ccccc3nc2N2CCC(C)CC2)c1 | inconclusive: 17.8 µM [inhibitor, single point] |
| COc1ccc(S(=O)(=O)N(CC(=O)Nc2ccc(F)c(Cl)c2)c2ccc(C)cc2)cc1OC | inconclusive: 17.8 µM [inhibitor, single point] |
| Cc1ccc(NC(=O)CSc2nc3ccc(Br)cc3[nH]2)c(C)c1 | inconclusive: 12.6 µM [inhibitor, partial curve, poor fit] |
| Cc1nnsc1C(=O)N1CCCC(c2ccccc2)(c2ccccc2)C1 | inconclusive: 14.1 µM [inhibitor, partial curve, poor fit] |
| Cc1ccc(-c2nnc(C3CN(C(=O)c4cc(C)cc(C)c4)CC34CCOCC4)o2)cc1 (stereo not given) | inactive |
| C=CCN1CCN(Cc2cccc(OCC(O)CN(C)C3CCCCC3)c2)CC1 (stereo not given) | inconclusive: 8.91 µM [inhibitor, partial curve] |
| CN1Cc2ccc(Nc3ccccc3)nc2C(C)(C(=O)NCc2cccs2)C1 (stereo not given) | inconclusive: 1.26 µM [inhibitor, partial curve, poor fit] |

| Structure (SMILES) | Potency |
| --- | --- |
| CNC(=O)[C@@H]1CN(C(=O)c2cc3cc(OC)ccc3[nH]2)C[C@H]1CO | inactive |
| CC(C)CNC(=O)NCC1Cn2cccc2C(=O)N1Cc1ccccc1 (stereo not given) | inconclusive: 2.24 µM [inhibitor, partial curve, poor fit] |
| COc1ccc2nc(NC(=O)c3nc(S(=O)(=O)Cc4ccccc4F)ncc3Cl)sc2c1 | inactive |
| Cc1cccc(CN2CCCC(O)(CNCc3ncccc3C)C2=O)c1 (stereo not given) | inconclusive: 1.41 µM [inhibitor, full curve, poor fit] |
| CCC(CC)c1cc([C@H]2CN3CC[C@H]2C[C@@H]3CNS(=O)(=O)c2cccs2)nc(-c2ccncc2)n1 | active: 1.12 µM |
| O=C(NC1CCCC1)N1CCC(Cc2nncn2CC2CC2)CC1 | inconclusive: 0.631 µM [inhibitor, full curve] |
| Cc1cc2ncc(C(=O)NCCc3ccccc3)cn2n1 | inactive |
| CNC(=O)c1cc2cc(-c3c(C)noc3C)nc(-c3ccccc3C)c2o1 | inconclusive: 31.6 µM [inhibitor, single point] |
| CN1C[C@@H](NC(=O)Nc2ccc(Cl)cc2)C[C@H]1c1nc(-c2ccc(F)cc2)no1 | active: 14.1 µM |
| COc1cc(F)ccc1-c1nc(N2CCOCC2)cc2c1CN(c1ccccc1)C2=O | inconclusive: 2.24 µM [inhibitor, full curve, poor fit] |
| CCOc1ccc(CNC(=O)c2ccc3c(c2)sc2nc(-c4ccccc4)cn23)cc1 | inconclusive: 17.8 µM [inhibitor, single point] |
| Cc1ccc(CN2C[C@@H](CO)[C@H](c3ccccn3)C2)nc1 | inconclusive: 10 µM [inhibitor, partial curve, poor fit] |
| C#CCNC(=O)C[C@@H]1C[C@@H](C(C)C)[C@H](CNS(=O)(=O)Cc2ccccc2)C=C1C | inconclusive: 14.1 µM [inhibitor, single point] |
| O=[N+]([O-])c1ccccc1CN1C[C@H](O)C[C@H]1c1nc(-c2ccncc2)no1 | inactive |
| COc1ccc(C2Cn3nnc(-c4noc(-c5ccsc5)n4)c3CO2)cc1 (stereo not given) | inactive |
| Cc1ccc(S(=O)(=O)N2CCc3cc(C(=O)N(C)Cc4ccccc4)ccc32)cc1 | inconclusive: 17.8 µM [inhibitor, single point] |
| COc1ccc(NC(=O)CSC2=Nc3ccccc3C3=NC(CC(=O)NCc4ccccc4OC)C(=O)N23)cc1Cl (stereo not given) | inconclusive: 10 µM [inhibitor, single point] |
| O=C(c1ccccc1F)N1CCCN(c2cc(-c3ccc(Cl)cc3)[nH]n2)CC1 | inconclusive: 1.12 µM [inhibitor, partial curve, poor fit] |
| O=C1NCCCCCN(C(=O)C2CCC2)[C@H]2CCCC[C@@H]12 | inactive |
| Cn1cc(C#N)cc1C(=O)N1CCCC(C)(Cc2ccc3c(c2)OCO3)C1 (stereo not given) | inconclusive: 10 µM [inhibitor, single point] |
| Cc1ccccc1-n1c(SCC(=O)Nc2ccc(Cl)cc2Cl)nc(O)cc1=O | inconclusive: 0.891 µM [inhibitor, partial curve] |
| COc1ccc(C2CC(=O)N(Cc3ccccc3C)c3c2c(C)nn3-c2nc(C)cc(C)n2)c(OC)c1 (stereo not given) | active: 10 µM |

| Structure (SMILES) | Potency |
| --- | --- |
| O=C(Cc1ccccc1)NCCC1CCN(C(=O)Nc2ccc(F)cc2)CC1 | inconclusive: 11.2 µM [inhibitor, partial curve] |
| COc1cc(C(=O)NC2CCN(c3cc(-c4ccc(Cl)cc4)[nH]n3)C2)cc(OC)c1OC (stereo not given) | inconclusive: 10 µM [inhibitor, partial curve, poor fit] |
| O=C(O)CCC(=O)N[C@H]1CO[C@H]2[C@@H]1OC[C@@H]2Nc1nccc(-c2cccc(F)c2)n1 | inactive |
| COc1ccc(CCN2CCC(CNC(=O)c3cnn(-c4ccc(C)cc4)c3C3CCN(C(=O)OC(C)(C)C)CC3)CC2)cc1 | inconclusive: 0.891 µM [inhibitor, single point] |
| Cc1ccc(NC(=O)Cn2c(=O)n(CC3CCC(C(=O)NC(C)C)CC3)c(=O)c3sccc32)cc1 (stereo not given) | inconclusive: 11.2 µM [inhibitor, single point] |
| COc1ccc(-c2nc(C)c(CCNC(=O)C(=O)Nc3ccccc3F)s2)cc1 | inconclusive: 10 µM [inhibitor, single point] |
| COc1ccccc1-n1nc(-c2ccccc2)c2cnc3c(F)cc(F)cc3c21 | inconclusive: 11.2 µM [inhibitor, partial curve] |
| CC(C)NC(=O)NC[C@H]1O[C@@H]2C[C@@H](CC(=O)N3CCOCC3)O[C@@H]2[C@@H]1O | inactive |
| CC(NC(=O)C1CCN(C(=O)c2ncn3c2COC(c2ccc(Cl)cc2)C3)CC1)c1ccccc1 (stereo not given) | inactive |
| O=C(NCC1CCCCC1)c1ccc2c(c1)N(S(=O)(=O)c1ccccc1)CC2 | active: 4.47 µM |
| O=C(NCCc1noc(-c2ccccc2)n1)C1COc2ccccc2C1 (stereo not given) | inactive |
| CC(C)CN1C(=O)c2cccn2CC1C(=O)O (stereo not given) | inconclusive: 0.891 µM [inhibitor, full curve] |
| COc1ccc(Cl)cc1C(=O)NCc1nnc2cc(-c3nc(C(C)C)no3)ccn12 | inactive |
| COc1cc2c(=O)n(Cc3ccco3)c(=O)n(CC(=O)Nc3ccc(F)cc3)c2cc1OC | inconclusive: 17.8 µM [inhibitor, single point] |
| Fc1ccc(C2Cn3nnc(-c4nc(-c5ccc(Br)cc5)no4)c3CO2)cc1 (stereo not given) | inactive |
| CCOc1cc2[nH]c(=O)n(Cc3ccc(C(=O)N4CCN(c5ccccc5)CC4)cc3)c(=O)c2cc1OCC | inconclusive: 7.08 µM [inhibitor, partial curve] |
| CSc1ncc(Cl)c(C(=O)Nc2cc(C(F)(F)F)ccc2Cl)n1 | inactive |
| CNC(=O)N1CCC(C2CCN(C(=O)COc3cccc(C)c3)C2)CC1 (stereo not given) | inconclusive: 8.91 µM [inhibitor, partial curve] |
| COc1ccc(NC(=O)c2oc3ccc(S(=O)(=O)N4CCCCC4)cc3c2C)cc1Cl | active: 11.2 µM |
| O=C1CCN(C(=O)CCc2nc3ccccc3[nH]2)CCCCCCN1 | inactive |
| Cc1ccc(CN2CCC(CNC(=O)c3cnn(-c4ccccc4)c3C3CCN(C(=O)OC(C)(C)C)CC3)CC2)cc1 | inconclusive: 1 µM [inhibitor, single point] |
